From PubChem BioAssay AID651820 (National Center for Advancing Translational Sciences (NCATS), 2012)
The campaign covered roughly 340,000 compounds. About 12,000 (3.5%) were called active. Inconclusive means that the source gave no clear call. Such entries were picked first, then a sample of the others. The call rests on the fitted dose curve; in most records, active means well fitted inhibition curve with a large enough effect; inconclusive means small, poorly fitted or top-dose-only effect, or another doubt; inactive means no such curve, though single readings can be large or run the other way. Potencies of inconclusive entries are left out as doubtful fits.

Assay: qHTS Assay for Inhibitors of Hepatitis C Virus (HCV)
Settings: Huh7.5.1 HCVcc-Cre (HCVcc is cell-culture hepatitis C virus) infection, luciferase reporter, 44 h; activity change, negative = inhibition: at 41.8 µM (top of the series) unless noted
How it was run: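 Cells seeded at 1,000/well and cultured 4 h, then compounds added followed by HCVcc-Cre virus (~0.5 moi). After 44 h further culture, luciferase substrate was added, plates held 15 min at room temperature, and luminescence read for 15 sec.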
On the % scale 0 is the no-effect control and ±100 the full control effect; potency means the concentration at half of the fitted maximal effect; tags describe the fitted curve by direction and shape.

Which Potency does the source give for `CC(C)Oc1ccc(S(=O)(=O)N2CCCCC2)cc1NC(=O)CN1C(=O)NC(C)(C2CC2)C1=O` (stereo not given) here?
Its Potency is inconclusive [inhibitor, single point].

With `CCOC(=O)[C@H]1[C@H]2COc3ccccc3[C@@H]2N2C(=O)c3cc(OC)c(OC)cc3NC(=O)[C@@]12C` as the compound, how does the “activity change, negative = inhibition” value read?
Its value is inactive: -4.17%.

With `Cc1nc2ccccc2c(=O)n1N(c1ccccc1)c1ccccc1` as the compound, how does the Potency read?
The Potency was inconclusive [inhibitor, single point].

For `N#CC1=C(SCc2ccccc2Cl)NC(=O)C(C(N)=O)C1` (stereo not given), which “activity change, negative = inhibition” value is on record?
Its value is inactive: 1.02%.

With `CCOC(=O)c1c(NC(=O)CSc2ncnc3[nH]ncc23)sc2c1CCC(C)C2` (stereo not given) as the compound, how does the Potency read?
Its Potency is inconclusive [inhibitor, partial curve].

Which “activity change, negative = inhibition” value does the source give for `COc1cccc(C2Nc3c(F)cc(Br)cc3C3C=CCC32)c1OC` (stereo not given) here?
Its value is inactive: -8.47%.

Which Potency does the source give for `CCc1ccccc1NC(=O)COC(=O)c1c(C)nsc1NC` here?
Its Potency is active: 4.47 µM.

For `CCc1ccc(N2C(=O)CN(Cc3ccc(OC)c(OC)c3)C2=S)cc1`, which Potency is on record?
Its Potency is inconclusive [inhibitor, single point].

With `O=c1c2cc(Cl)ccc2nc(-c2ccc([N+](=O)[O-])cc2)n1O` as the compound, how does the Potency read?
Its Potency is inconclusive [inhibitor, single point].

With `CCCCNc1ncnc2c1cnn2-c1ccc(Cl)cc1` as the compound, how does the Potency read?
The Potency was active: 10 µM.

Which “activity change, negative = inhibition” value does the source give for `Cc1ccc(S(=O)(=O)N2CCN(C(=O)COC(=O)COc3ccc(Cl)cc3)CC2)c(C)c1` here?
The value was inactive: 9.85%.

With `CCOc1ccc(S(=O)(=O)Nc2nc3ccccc3nc2Nc2ccc(N3CCOCC3)cc2)cc1` as the compound, how does the “activity change, negative = inhibition” value read?
Its value is inactive: 29.5%.

For `COc1ccccc1NC(=O)C(C)N(C)Cc1ccc(Cl)s1` (stereo not given), which “activity change, negative = inhibition” value is on record?
Its value is inactive: -19%.

With `COC(=O)C1CCN(c2nc3ccccc3nc2C(C#N)C(=O)OCC(C)C)CC1` (stereo not given) as the compound, how does the “activity change, negative = inhibition” value read?
The value was inactive: -14.4%.

With `CCOc1cc(/C=N/NC(=O)c2ccc(CN3CCOCC3)cc2)ccc1OC` as the compound, how does the Potency read?
The Potency was inconclusive [inhibitor, full curve].

For `Cc1ccc(N(CC(=O)Nc2cc(Cl)ccc2Oc2ccccc2)S(C)(=O)=O)cc1C`, which Potency is on record?
The Potency was inconclusive [inhibitor, partial curve].

With `CC1CC(C)CN(C(=O)c2ccc3ccccc3c2)C1` (stereo not given) as the compound, how does the Potency read?
The Potency was inconclusive [inhibitor, single point].

With `CC1CCN(S(=O)(=O)c2ccc(NC(=O)CN3CCN(c4ccccc4)CC3)cc2)CC1` as the compound, how does the Potency read?
Its Potency is inconclusive [inhibitor, full curve, poor fit].

Which Potency does the source give for `COc1ccc(C(=O)Nc2cc(C)cc(C)c2)cc1S(=O)(=O)N1CCOCC1` here?
The Potency was inconclusive [inhibitor, full curve, poor fit].

For `CCOC(=O)c1ccc(NC(=O)Cc2coc3cc4c(cc23)CCC4)cc1`, which Potency is on record?
Its Potency is inconclusive [inhibitor, single point].

Which Potency does the source give for `O=C(Nc1ccc(Cl)cc1)c1cccnc1N1CCCCC1` here?
Its Potency is inconclusive [inhibitor, partial curve].

With `COc1ccc2oc(=Nc3cccc(F)c3)c(C(N)=O)cc2c1` as the compound, how does the Potency read?
The Potency was inconclusive [inhibitor, partial curve].

Which Potency does the source give for `O=C(NCCCN1CCN(c2cccc(Cl)c2)CC1)c1ccc(N2CCCC2=O)cc1` here?
The Potency was inconclusive [inhibitor, single point].

For `O=c1oc(-c2ccccc2)cc(Cl)c1Cl`, which Potency is on record?
Its Potency is inconclusive [inhibitor, single point].

With `CSc1cccc(NC(=O)c2[nH]c(C)c(C(C)=O)c2C)c1` as the compound, how does the Potency read?
Its Potency is inconclusive [inhibitor, partial curve].

For `Cn1c(=NC(=O)c2ccco2)sc2ccccc21`, which Potency is on record?
Its Potency is inconclusive [inhibitor, partial curve].

Which Potency does the source give for `CCCCN1CCS(=O)(=O)N(Cc2ccccc2Br)CC(C(=O)OC)C1` (stereo not given) here?
Its Potency is inconclusive [inhibitor, partial curve].

For `OCCN1CCN(CC(O)COc2ccc(-c3ccccc3)cc2)CC1` (stereo not given), which Potency is on record?
Its Potency is inconclusive [inhibitor, single point].

For `O=C(CN1CCN(S(=O)(=O)c2ccc(Br)cc2)CC1)c1ccc(O)c(O)c1`, which “activity change, negative = inhibition” value is on record?
Its value is inactive: -1.08%.

For `CC(NC(=O)COC(=O)C1=NN(c2ccccc2)C(=O)CC1)c1ccccc1` (stereo not given), which Potency is on record?
The Potency was inconclusive [inhibitor, single point].

With `CCN1CCN(c2ccc(S(=O)(=O)N3CCCCC3)cc2NC(=O)Cc2ccccc2)CC1` as the compound, how does the Potency read?
The Potency was inconclusive [inhibitor, single point].

Which Potency does the source give for `O=C(N/N=C/c1cccc2ccccc12)c1ccc(CN2CCOCC2)cc1` here?
The Potency was inconclusive [inhibitor, partial curve].

Which Potency does the source give for `COC(=O)[C@@]12CCCN1[C@H](c1ccc(-c3cccc(Cl)c3)c(OC)c1)[C@H]1C(=O)N(C)C(=O)[C@H]12` here?
The Potency was inconclusive [inhibitor, single point].

For `O=[N+]([O-])c1ccc(N/N=C/c2cccc(O)c2O)c(S(=O)(=O)N2CCOCC2)c1`, which Potency is on record?
The Potency was active: 2.82 µM.

For `Cc1ccc(N(CC2CO2)S(=O)(=O)c2ccccc2[N+](=O)[O-])cc1` (stereo not given), which “activity change, negative = inhibition” value is on record?
The value was inactive: 7.37%.

With `COc1cc(OC)cc(C(=O)N[C@H](C(=O)Nc2nc(-c3ccc(F)c(F)c3)cs2)C(C)C)c1` as the compound, how does the Potency read?
Its Potency is inconclusive [inhibitor, single point].

For `Cc1cccc(CCN(C(=O)Cc2cccs2)C(C(=O)NC2CCCCC2)c2cccnc2)c1` (stereo not given), which Potency is on record?
The Potency was inconclusive [inhibitor, single point].

Which Potency does the source give for `CCn1c(=O)c(CCC(=O)N2CCOCC2)c(C)c2c(C)nn(-c3ccccc3)c21` here?
Its Potency is inconclusive [inhibitor, single point].

For `CN(C)S(=O)(=O)c1cccc(C(=O)C2=C3SC=C(c4ccccc4)N3CC2)c1`, which Potency is on record?
The Potency was inconclusive [inhibitor, single point].

Which Potency does the source give for `Cc1cc(C(=O)N/N=C/c2ccc(OCc3ccccc3)cc2)c(C)o1` here?
The Potency was inconclusive [inhibitor, single point].

With `O=C(Cc1ccccc1)NCc1ccc(-n2cccc2)cc1` as the compound, how does the Potency read?
The Potency was inconclusive [inhibitor, partial curve].

For `O=C(COc1ccc(C(=S)N2CCOCC2)cc1)Nc1ccccc1C(F)(F)F`, which Potency is on record?
The Potency was inconclusive [inhibitor, partial curve].

Which “activity change, negative = inhibition” value does the source give for `COC(=O)c1ccc(Sc2ccccc2NS(=O)(=O)c2ccc(C)cc2)nc1` here?
The value was inactive: -9.78%.

With `CCN(CC)CCCNC(=O)C(C)Sc1nc(-c2ccccc2)cc(C(F)(F)F)n1` (stereo not given) as the compound, how does the Potency read?
Its Potency is inconclusive [inhibitor, single point].

With `CCOC(=O)C1=NNC(C(=O)c2ccccc2)C1c1ccc(Cl)cc1` (stereo not given) as the compound, how does the Potency read?
The Potency was inconclusive [inhibitor, single point].

For `O=C(Nc1ccccc1)N1CCc2scc[n+]2-c2ccccc21`, which Potency is on record?
The Potency was inconclusive [inhibitor, partial curve, poor fit].

With `CCOc1ccc(/C=N/NC(=O)c2ccccc2NC(=O)c2ccc(OC)cc2)cc1` as the compound, how does the “activity change, negative = inhibition” value read?
Its value is inactive: 0.355%.

For `CCOC(=O)N1CCN(S(=O)(=O)c2ccc(C(=O)Nc3nc4ccc(F)cc4s3)cc2)CC1`, which “activity change, negative = inhibition” value is on record?
Its value is inactive: -11.3%.

Which Potency does the source give for `COc1ccc(C2=CC(c3ccc(OC)c(OC)c3)n3nnnc3N2)c(OC)c1` (stereo not given) here?
Its Potency is inconclusive [inhibitor, partial curve].

With `Cc1ccc2nc(-c3ccc(NC(=O)CN(c4ccccc4C)S(C)(=O)=O)cc3)sc2c1` as the compound, how does the Potency read?
The Potency was inconclusive [inhibitor, partial curve].

Which Potency does the source give for `Cc1cnc([N+](=O)[O-])n1CCOC(=O)NC(=O)c1ccccc1Cl` here?
Its Potency is inconclusive [inhibitor, single point].

With `O=C(N[C@@H]1CCC(=O)N(CC[C@H](Sc2ccc(Br)cc2)c2ccccc2)CC1)OCc1ccccc1` as the compound, how does the Potency read?
The Potency was inconclusive [inhibitor, single point].

With `Cc1cccn2c(=O)c(/C=C3\SC(=S)N(CC(C)C)C3=O)c(NCCCOC(C)C)nc12` as the compound, how does the Potency read?
The Potency was inconclusive [inhibitor, partial curve].

With `CCOC(=O)C1=C(NC(=S)NC(=O)c2ccccc2)c2ccccc2CC1C(C)C` (stereo not given) as the compound, how does the Potency read?
The Potency was inconclusive [inhibitor, single point].

With `CC(=O)OCC1=C(C(=O)O)N2C(=O)C(NC(=O)CCn3nc(C(F)(F)F)c(Br)c3C3CC3)C2SC1` (stereo not given) as the compound, how does the “activity change, negative = inhibition” value read?
The value was inactive: -1.07%.

Which Potency does the source give for `Cc1ccc(C)c(NC(=O)C(=O)NCCc2c[nH]c3ccccc23)c1` here?
The Potency was inconclusive [inhibitor, single point].

Which Potency does the source give for `O=C(OCC(O)CO)c1ccccc1Nc1ccnc2cc(Cl)ccc12` (stereo not given) here?
The Potency was inconclusive [inhibitor, single point].

Which Potency does the source give for `c1ccc(-c2onc3c2CCCC3)cc1` here?
The Potency was inconclusive [inhibitor, partial curve].

With `CC(=O)Nc1ccc(-c2csc(NC(=O)C3=COCCO3)n2)cc1` as the compound, how does the Potency read?
Its Potency is inconclusive [inhibitor, partial curve, poor fit].

With `CCOC(=O)C(C)On1c(-c2ccccc2)nc2ccc([N+](=O)[O-])cc21` (stereo not given) as the compound, how does the Potency read?
The Potency was inconclusive [inhibitor, partial curve].

Which “activity change, negative = inhibition” value does the source give for `Cc1cc(C)c(NC(=S)NC(NC(=O)c2ccccc2)C(Cl)(Cl)Cl)c(C)c1` (stereo not given) here?
Its value is inactive: -32.2%.

For `Cc1ccc(C(=O)N2CCCC(CCC(=O)N3CCN(c4ccccn4)CC3)C2)s1` (stereo not given), which Potency is on record?
The Potency was inconclusive [inhibitor, single point].

With `Cc1ccc(NC(=O)/C(=C\c2cccc(Br)c2)NC(=O)c2ccco2)cc1` as the compound, how does the Potency read?
The Potency was inconclusive [inhibitor, partial curve].

For `CSc1ccccc1NC(=O)CSc1nncs1`, which “activity change, negative = inhibition” value is on record?
The value was inactive: 9.43%.

With `CCN(CC(=O)NCc1ccc(F)cc1)C(=O)C(C)Oc1cccc(Cl)c1` (stereo not given) as the compound, how does the Potency read?
Its Potency is inconclusive [inhibitor, partial curve, poor fit].
